Test results reported in publication PMC5515408.
The other results are listed elsewhere or left out. At the low end of the ranking the order means little.

Molecular target: MAX:MAX (p21) (UniProt P61244-2)
Assay: protein-binding microarray (anti-MAX antibody)
Conditions: PBM: 15 mM Tris-HCl pH 7.5, 100 mM KCl, 0.075% NP40, 7.5 mM beta-mercaptoethanol, 375 ng/ul BSA, 8 ng/ul poly(dA-dT):(dA-dT), 550 ng complex, 60 min, room …; high values mean tight binding; double strand, one strand shown; sequences stand for … in CCGGC…TTAATAGCTAAGATTACTATATCGACG

Sequence | binding signal (log2 normalized fluorescence)
TGAACTCGAGTA | 0.282
TGACACGGGATC | 2.12
TGACACGTGACT | 3.21
TGAGGTTGAGTA | -0.703
TGACTGTCTGTA | -0.155
TGAGTGATTGTA | -0.206
TGACTGCAAGTA | -0.0915
TGAGTGAGAGTA | -0.462
TGACGTATTGTA | -0.527
TGATGCACCGTA | 0.313
TGATGAGAGGTA | -0.559
TGAGATGGTGTA | -0.402
TGAATGGGCGTA | 0.274
TGACACGTGGCA | 3.28
TGAAGATCAGTA | -0.638
TGAGCTGAGGTA | -0.753
TGACTTTTAGTA | -1.01
CGCCACGTAGTA | 1.58
TGAGGTTAAGTA | -0.992
TGACTCCCGGTA | -0.467
TGACGCTTCGTA | -0.566
CGACATGTGGTA | 3.18
TGAGTATGGGTA | -0.499

Sequence | binding signal (log2 normalized fluorescence)
TGAGTCGCGGTA | -0.622
TGACAACTGGTT | -0.38
TGATTGGTAGTA | -0.908
TGATAGGATGTA | -0.515
TGATAAATGGTA | -0.151
TGATAAATAGTA | -1.16
TGATAGTTAGTA | -1.29
TGACAGCCAGTA | 0.0891
TGATAACACGTA | 0.523
TGACGCCGCGTA | -0.354
TGAAACCATGTA | 0.529
TGATCAGGTGTA | 2.23
TGACCAATGGTA | 0.121
TGAAGTTGTGTA | -0.357
TGAAACTACGTA | -0.591
TGACTCTGCGTA | -0.794
TACGTGCCGCGA | 2.47
TGAAACTCAGTA | -0.843
TGAGCCGGGGTA | -0.812
TGAACATCAGTA | -0.211
TGATAATATGTA | -0.59
TGAGCTTTTGTA | -1.3
TGATCCTCTGTA | -0.751

Sequence | binding signal (log2 normalized fluorescence)
TGACCGCTAGTA | -0.618
TGATTCTAGGTA | -1.41
CGACACGCTGTA | 3.08
TGATCTCGCGTA | 0.19
TGAGAAGATGTA | -0.551
TGACGCTAAGTA | -0.829
TGATGTAAGGTA | -0.254
TGAGAAGTCGTA | -1.05
TGATTTACAGTA | -0.781
TGACATCTGGCA | 0.914
TGACGTGTTGTA | 1.35
TGATAAGCAGTA | -0.832
TGAAGAGGAGTA | -0.693
TGAATTCTTGTA | -0.798
TGATCCGTGGTA | 0.161
TGACCTTAAGTA | -0.378
TGAGATATCGTA | -1.17
TGACACTCGGGA | 0.023
TGAAGGTTGGTA | -0.58
TGAGACCCTGTA | -0.583
TGAATGCCCGTA | 0.244
TGACCTTTGGTA | -0.703
TGATTTTGTGTA | -1.11

Sequence | binding signal (log2 normalized fluorescence)
TGACCGTCCGTA | -0.314
TGAATTATTGTA | -1.24
TGACACGTTTAA | 2.59
TGAACGTTCGTA | 0.09
TGAACCGACGTA | -0.59
TGACCCGGTGTA | 0.329
TAACACTTGGTA | 0.603
TGATTTCTAGTA | -1.47
TGAAGCTTCGTA | -0.873
TGACACATTGTA | 1.99
TGAAGGGCAGTA | -0.488
TGACCCAAAGTA | -0.422
TGATACACCGTA | -0.545
TGACTGATCGTA | -0.373
TGAGCCGAAGTA | -1.17
TGCCAGGTAGTA | -0.365
TGACTTTGGGTA | -0.965
TGACATTCTGTA | 0.0984
TGAGATACTGTA | -0.621
TGACAGAGCGTA | -0.605
ATCCACGTGGTA | 3.28
AATCTAGTCTAC | -0.667
TGACACGGGTTA | 2.17

Sequence | binding signal (log2 normalized fluorescence)
TGATTCGAGGTA | -0.852
TGAGTTTCCGTA | -1.03
TGACCTCTCGTA | -0.5
ACTATCTTTGTT | 0.00085
TGAAGAGCTGTA | -0.929
TGAGACTTAGTA | -0.834
TGAGCACAGGTA | 0.728
TGAGCTTGGGTA | -1.05
TGAACCGTGGTA | 0.942
TGACCAAACGTA | -0.418
TGAAGGTCGGTA | -0.597
TGAGACTGGGTA | -0.944
TGACGGCTTGTA | -0.841
TGATCGCACGTA | 0.308
TGAATCGTTGTA | -0.465
TGACTAGCAGTA | -0.892
TGAAACGTGGTA | 2.95
TGACACGTTGAA | 2.87
TGAATAAGCGTA | -0.651
TGAAATTTTGTA | -1.49
TGATCGTGTGTA | 1.12
TGAAGAAAAGTA | -1.05
TGACCACATGTA | 3.09

Sequence | binding signal (log2 normalized fluorescence)
TGACTCAGCGTA | -0.59
TGACGCCAGGTA | -0.342
TGAGCCTCGGTA | -0.847
TGTCACCTTGTA | 0.794
TGTTACGTGGTA | 0.972
TGACATGTGATA | 3.17
TGAGCCCGAGTA | -1.07
TGATCCGCTGTA | -0.689
TTACACGTGGTA | 3.3
TGATAAGATGTA | -0.756
TGACGCTGTGTA | -0.204
TGATTTCAGGTA | -1.19
TGACTCCGTGTA | 0.0761
TGAGGTTTCGTA | -1.02
TCACACATGCTA | 3.15
TGACACGTATTA | 1.21
GCCGATTACCCT | -1.04
TGATTAACGGTA | -0.892
TGAAAATTGGTA | -1.07
TGACACTAGGTA | 0.178
TAACACGTGGAA | 3.35
TGAGCGTGGGTA | 2.35
TGAGTTCACGTA | -0.381
